Laboratory results as given in the RNAGym collection of RNA variant scans (doi:10.7554/elife.90254).
Read counts are not given, so values of variants with three or more changes are uncertain.

B1: LINE1-mini (parent)
chain: GGCAGAGCUCAACACAGCGUGGCAAAGUGGCUGUGGCUAGACUGCC

Variants of: B1
Assay: self-cleavage, relative activity (ratio to wild type); higher = more cleavage; in vitro, sequencing; the parent is a self-cleaving ribozyme

Row | Variant | self-cleavage
1 | GUCAGAGCUAAACACAGCGUGGCAAAGUGGCUGUGGCCAGACUGCC | 0.01
2 | GUCAGAGCUGAGCACAGCGUGGCAAAGUGGCUGUGGCUAGACUGCC | 0.02
3 | GUCAGAGCUGAUCACAGCGUGGCAAAGUGGCUGUGGCUAGACUGCC | 0.02
4 | GUCAGAGCUGAACUCAGCGUGGCUAAGUGGUUGUGGCUAGACUGCC | 0
5 | GUCAGAGCUGAAGACAGCGUGGCAAAGUGUCUGUGGCUAGACUGCC | 0.01
6 | GUCAGAGCUGAACACACCGUGGCAAAGUGUCUGUGGCUAUACUGCC | 0
7 | GUCAGAGCUUCACACAGCGUGGCAAAGUGGCUGUGGCUAGACUGCC | 0.05
8 | GUCAGAGCUUCACACAGCGUGGCAAAGUGGGUGUGGCUAGACUGCC | 0.01
9 | GUCAGAGCUUCACACAGCGUGGCAAAGAGGCUGUGGCUAGACUGCC | 0.02
10 | GUCAGAGCUUACCACAGCGUGGCAAAGUCGCUGUGGCUAGACUGCA | 0
11 | GUCAGAGCUUAUCACAGUGUGGCACGGUGUCUGUGGCUAGACUGCA | 0.01
12 | GUCAGAGCUUAACAUAGCGUGGCAAAGUGGCUGUGGCUAGACUGCC | 0.03
13 | GUCAGAGCUUAACACAGCGUGGCAAAGUGGCUGUGGAUAGACUGCC | 0.03
14 | GUCAGAGCUCAAAACAGCGUGGAAAAGUGGCUGUGGCUAGACUGCC | 0.04
15 | GUCAGAGCUCAAGACAGCGUGGCAAAGUGGAUGUGGCUAGACUGCC | 0.01
16 | GUCAGAGCUCAAGACAGCGUGGCAAAGUGGCUGUGGCUAGACUGCU | 0.03
17 | GUCAGAGCUCAAGACAGCGUGGCAAAGUGGCUGUGGCCAGACUACC | 0.02
18 | GUCAGAGCUCAAUAAAGCGUGGCAAAGUGGCUGUGGCUAGAAUGCC | 0.11
19 | GUCAGAGCUCAAUACAGCGUGCCAAAGUGUCUGUGGCUAGACUGCC | 0.03
20 | GUCAGAGCUCAAUACAGCGUGGCAAAGUGGCUCUGGCUAGUCUGCC | 0.02
21 | GUCAGAGCUCAAUACAGCGUGGCAAAGUGGCUGUGACUAGACUGCC | 0.02
22 | GUCAGAGCUCAACAAAGCGUGGCAAAGUGGGUGCGGAUAGACUGCC | 0.01
23 | GUCAGAGCUCAACAAAGCGUGGCAAAGUCGCUGUGGCUAGACUGCC | 0.07

Row | Variant | self-cleavage
24 | GUCAGAGCUCAACAGUGCGUGGCAAAGUGGCUGUCGCUACACUGCC | 0.01
25 | GUCAGAGCUCAACAUAGCGUGGUGAAAUGGCUGUGGCUAAACUGCC | 0.02
26 | GUCAGAGCUCAACACAGAGCGGCAACGUGGGUGUAGCUAGACUGCC | 0.01
27 | GUCAGAGCUCAACACAGGGUGGCAGAGUGGCUGUGGCUAGACUGCC | 0.02
28 | GUCAGAGCUCAACACAGGGUAGCAAAGUGGCUGUGCCAAGACUGCC | 0.01
29 | GUCAGAGCUCAACACAGGGUGGCAAAGUGGCUGUGCCUAGACUGCC | 0.02
30 | GUCAGAGCUCAACACAGUGUGGCAAAGUGGCUGUGGCUAGACUGCG | 0.03
31 | GUCAGAGCUCAACACAGUGUGGCAAAGUUGCUGUGGCUAGAGUGCC | 0.05
32 | GUCAGAGCUCAACACAGUGUGGCAAAGCGGCUGUGGCUAGACUGCC | 0.04
33 | GUCAGAGCUCAACACAGCGUGGAAAAGUUGCUGCGGCUAGACUGCC | 0.05
34 | GUCAGAGCUCAACACAGCGUGGAAAAGUGGCUGUGGCAAGACUGCC | 0.03
35 | GUCAGAGCUCAACACAGCGUGGGCAAGUGGCUGUGGUUAGACUGCC | 0.11
36 | GUCAGAGCUCAACACAGCGUGGGAAAGUGUCUGUGGCUAGACUGCC | 0.04
37 | GUCAGAGCUCAACACAGCGUGGUAAAGUGGCUGUGGCUAGACUCCC | 0.04
38 | GUCAGAGCUCAACACAGCGUGGUAAAGUGGCCGUGGCUAGACUGCC | 0.05
39 | GUCAGAGCUCAACACAGCGUGGCAAAGUGGAUUUGGCUAGACUGCC | 0.1
40 | GUCAGAGCUCAACACAGCGUGGCAAAGUGGAUGUGGCAAGACUCCC | 0.02
41 | GUCAGAGCUCAACACAGCGUGGCAAAGUGGGUUUGGCUAGACUGUC | 0.02
42 | GUCAGAGCUCAACACAGCGUGGCAAAGUGGCUGUGGGUAGACUGCA | 0.02
43 | GUCAGAGCUCAACACAGCGUGGCAAAGUGGCUGUGGGUAAACUGCC | 0.03
44 | GUCAGAGCUCAACACAGCGUGGCAAAGUGGCUGUGGUUAUACUGCC | 0.07
45 | GUCAGAGCUCAACACAGCGUGGCAAAGUGGCUGUGGCUAGACUGGG | 0.47
46 | GUCAAAGCUCAACGCAGCGUGGCAAAGUGGCUGUAGCUAGACUGCC | 0

Row | Variant | self-cleavage
47 | GUCAAAGUUCAACACAGCGUGGAAAAGUGACUGUGGCUAGACUGCC | 0.16
48 | GUCAAAGCUCAAAACAGCGUGGCAAAGUGGCUGUGGCUAGACUGCC | 0.11
49 | GUCAAAGCUCAACAAGGCGUGGCAAAGUGGCUGUGGCUAGACUGCC | 0.11
50 | GUCAAAGCUCAACACAGCGUGGCAAAGUGGCUGUGGAUACACUGCC | 0.02
51 | GUCAAAGCUCAACACAGCGUAGCAAAGUGGCUGUGGCUAGACAGCC | 0.18
52 | GUCAAAGCUCAACACAGCGUGCCAAAGUGGCUGUGGCUAGACUGCA | 0.02
53 | GUCAAAGCUCAACACAGCGUGGCAAAGUUACUGUGGCUAGACUGCC | 0.04
54 | GUCAAAGCUCAACACAGCGUGGCAAAGUGUCUGUGGAUAGAAUGCC | 0.03
55 | GUCACGGCUCAACACAGCGUGGCAAUGUGGCUGUGGCGAGAAGGCC | 0
56 | GUCACAGCUCGACACAGCGUGGCAAAGUGGCUGUGGCUAGACUGCC | 0.01
57 | GUCACAGCUCAACACAGCGUGGCAAAGUGGCUGUGGCUAGACUGCU | 0.02
58 | GUCACAGCUCAACACAGCGUGGCAAAGUGCCUGUGGCUAUACUGCC | 0.03
59 | GUCACAGCUCAACACAGCGUGGCAAAGUGGCUGUGACUAGACUACA | 0
60 | GUCACAGCUCAACACAGCGGGGCAAAGUGGCUGUGGCUAGACUGCC | 0.01
61 | GUCAUAGUUCGACACAGCGUGGCAAAGUAGCUGUGGCUAUACUGCC | 0.01
62 | GUCAUAGCUAAACACAGCGUGGAAAAGUGGCUGUGGCUAGACUGCC | 0.01
63 | GUCAUAGCUCAAUACAGCGUGGCAAAGUGGCUGUGGCUAGACUGCC | 0.05
64 | GUCAUAGCUCAACAAAGCGCGGCAAAGUGGCUGUGGCUAGACUGCC | 0.03
65 | GUCAUAGCUCAACAUAGCGUGGCAAAGUGGCUGUGGCUAGACUGCC | 0.02
66 | GUCAUAGCUCAACACAGCGUGGCAAAGUGGCUGUGGAUAGACUGCC | 0.06
67 | GUCAUAGCUCAACACAGCAUGGCAAAUUGGCUGUGGCUAGACUGCC | 0.03
68 | GUCAUAGCUCAACACAGCGUGGCAAAGUCGCUGUGGCUAGACUGCC | 0.02
69 | GUCAUAGCUCAACACAGCGCGGCCAAGUGGCUGUGGCUACACUGCC | 0.01

Row | Variant | self-cleavage
70 | GUCAGAACUCACCACAGCGUGUCAAAGUGGCUGUGGCUAAACUGCC | 0.01
71 | GUCAGAACUUAACACAGCGUGGCAAAGUGGCUGUGGCUAGACUGCC | 0.01
72 | GUCAGAACUCAACACAGUGUGGCAAAGACGCUGUGGCUAGACUGCC | 0.03
73 | GUCAGAACCCAACACAGCGUGGCAAAGUGGCUGUGGCUAGACUGCC | 0.04
74 | GUCAGAACUCAACACAGCGAGGCAACGUGGCUGUGGCUAGACUGCC | 0.05
75 | GUCAGACCUCCAAACAGCGUCGCAAAGUCGCUGUGGCUAGACUGCC | 0
76 | GUCAGACCUCAGGACAGCGUGGCAAAGUGGCUGUGGCUAGACUGCC | 0.07
77 | GUCAGACCUUAACACAGCGUGGCAAGAUGGCUGUGGCUAGAAUGCC | 0.02
78 | GUCAGACCUUAAAACAGCGUCGCAAAGUGGCUGUGGCUAGACUGCC | 0.01
79 | GUCAGAUCUCGACACAGCGUGGCAAAGUGGCUGUGCCUAGACUGCC | 0
80 | GUCAGAUCUCAACACAGCGUGGCAGAGUGGCUAUGGCUAGACUGCC | 0.07
81 | GUCAGAUCUCAACACAGCGUGGCAACGUGGCUGUGGCUAGACUGCC | 0.02
82 | GUCAGAUCUCAACACAGGGUGGAAAAGUGGCUGUGGCCAGACUGCC | 0.01
83 | GUCAGAUCUCAACACAGCUUGGCAACGUGGUUGUGGCUAGACUGCC | 0.02
84 | GUCAGAGCUCAACACAACGUGGCAAAGUGGAUGUGGCUAGACUGCC | 0.07
85 | GUCAGAGCUCAACACACCUUGGCAAAGUGGCAGUGGAUAGACUGCC | 0.08
86 | GUCAGAGCUCAACACAUCGUGGCAAAGUCGCUGUGCCUAGACUACC | 0.01
87 | GUCAGAGCUCAACACAUCGUGGCAAAGUGUCUGUGGCUAGACUGUG | 0.04
88 | GUCAGAGCUCAACACAGCAUGACAAAGUGCCUAUGGCUAGACUGCC | 0.02
89 | GUCAGAGCUCAACACAGCAUGGCAAAGUGGCUGUCGCUAGACUGCC | 0.03
90 | GUCAGAGCUCAACACAGCUUGGCAAUGUGGUUGUGGCUAGACUGCC | 0.07
91 | GUCAGAGCUCAACACAGCUUGGCAAAGUGGAUGUCGCUAGACUGCC | 0.04
92 | GUCAGAGCUCAACACAGCUUGGCAAAGUGGCUGUGGCGAUACUGCC | 0

Row | Variant | self-cleavage
93 | GUCAGAGCUCAACACAGCGUAGCAAAGUCGCUGUGGCUAGACUGCC | 0.02
94 | GUCAGAGCUCAACACAGCGUUGCAAAGUGGCUGUGGAUUGACUGCC | 0.02
95 | GUCAGAGCUCAACACAGCGUUACAAAGUGGGUGUGGCUAGUCUGCC | 0.01
96 | GUCAGAGCUCAACACAGCGUUGCAAAGUGGCAGUGGCUAGACUGCC | 0
97 | GUCAGAGCUCAACACAGCGUGACAAUGUGGCUGUGGCUUGACUGCG | 0
98 | GUCAGAGCUCAACACAGCGUGACAAUGUGGCUGUGGCUAGUCUGCC | 0.04
99 | GUCAGAGCUCAACACAGCGUGCCAAAGUGGCUGUGGCUUGACUGCC | 0.09
100 | GUCAGAGCUCAACACAGCGUGUCAGAGUGGCUGUGGCUAGACUGCC | 0.13
101 | GUCAGAGCUCAACACAGCGUGGCAAAAUGGCUUUGGCUAGAAUGCC | 0
102 | GUCAGAGCUCAACACAGCGUGGCAAAUUCGCUGUUGCUAGACUGCC | 0.02
103 | GUCAGAGCUCAACACAGCGUGGCAAAUUGGCUGUGUCUAGACUGCC | 0.04
104 | GUCAGAGCUCAACACAGCGUGGCAAAGUUGCUGUGGCUACACUGCC | 0.06
105 | GUCAGAGCUCAACACAGCGUGGCAAAGUGGCUAUGGCAAAACUGCC | 0.01
106 | GUCAGAGCUCAACACAGCGUGGCAAAGUGGCUUUGUCUAGACUGCC | 0.04
107 | GUCAGAGCUCAACACAGCGUGGCAAAGUGGCUGUCGCUCGACUGCC | 0.07
108 | GUCAGAGCUCAACACAGCGUGGCAAAGUGGCUGUCGCUAAACUGCC | 0.01
109 | GUCAGAGCUCAACACAGCGUGGCAAAGUGGCUGUUGGUAGACUGCC | 0.06
110 | GUCAGAGCUCAACACAGCGUGGCAAAGUGGCUGUGGCUAGACUAGC | 0.03
111 | GUCAGAGCACCACACAGCUUGGCAAAGUCGCUGUGGCUAGACUGCC | 0
112 | GUCAGAGCACUACACAGCGUGGCAAAGUGGCUGUGGAUAGACUGCC | 0.01
